“And” between values parts separate entries of the source, which are not always exact repeats. Equal entries are not always repeated. Among all 350,000 compounds or so, about 31,000 (8.9%) were called active. The inconclusive results got no clear call from the source; some entries with a clear call stand among them for comparison. The call rests on the fitted dose curve; in most records, active means well fitted inhibition curve with a large enough effect; inconclusive means small, poorly fitted or top-dose-only effect; inactive means no such curve, though single readings can be large or run the other way. Where the call is inconclusive, the potency comes from a doubtful curve fit. Some structures have more than one record in an assay (separate samples or runs), and their calls can disagree.
Target: Histone-lysine N-methyltransferase EHMT2 (Homo sapiens) (UniProt Q96KQ7)
Test: qHTS Assay for Inhibitors of Histone Lysine Methyltransferase G9a; further: nearly all actives have a fitted effect of over 75% in size
Settings: G9a H3K9 monomethylation, AlphaScreen, 2 h; activity, negative = inhibition: at 59 µM (top of the series) unless noted
Outline: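 Readings reflect AlphaScreen signal from monomethyl-H3K9 antibody detection. HMT at 20 nM; substrate b-H3K9 500 nM; cofactor SAM 20 uM; 2 h RT reaction; compounds tested as titrations in qHTS with 15 min preincubation.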
On the % scale 0 is the no-effect control and ±100 the full control effect; potency means the concentration at half of the fitted maximal effect; tags describe the fitted curve by direction and shape.

UniProt Q96KQ7, sequence (Q96KQ7 whole entry, looked up): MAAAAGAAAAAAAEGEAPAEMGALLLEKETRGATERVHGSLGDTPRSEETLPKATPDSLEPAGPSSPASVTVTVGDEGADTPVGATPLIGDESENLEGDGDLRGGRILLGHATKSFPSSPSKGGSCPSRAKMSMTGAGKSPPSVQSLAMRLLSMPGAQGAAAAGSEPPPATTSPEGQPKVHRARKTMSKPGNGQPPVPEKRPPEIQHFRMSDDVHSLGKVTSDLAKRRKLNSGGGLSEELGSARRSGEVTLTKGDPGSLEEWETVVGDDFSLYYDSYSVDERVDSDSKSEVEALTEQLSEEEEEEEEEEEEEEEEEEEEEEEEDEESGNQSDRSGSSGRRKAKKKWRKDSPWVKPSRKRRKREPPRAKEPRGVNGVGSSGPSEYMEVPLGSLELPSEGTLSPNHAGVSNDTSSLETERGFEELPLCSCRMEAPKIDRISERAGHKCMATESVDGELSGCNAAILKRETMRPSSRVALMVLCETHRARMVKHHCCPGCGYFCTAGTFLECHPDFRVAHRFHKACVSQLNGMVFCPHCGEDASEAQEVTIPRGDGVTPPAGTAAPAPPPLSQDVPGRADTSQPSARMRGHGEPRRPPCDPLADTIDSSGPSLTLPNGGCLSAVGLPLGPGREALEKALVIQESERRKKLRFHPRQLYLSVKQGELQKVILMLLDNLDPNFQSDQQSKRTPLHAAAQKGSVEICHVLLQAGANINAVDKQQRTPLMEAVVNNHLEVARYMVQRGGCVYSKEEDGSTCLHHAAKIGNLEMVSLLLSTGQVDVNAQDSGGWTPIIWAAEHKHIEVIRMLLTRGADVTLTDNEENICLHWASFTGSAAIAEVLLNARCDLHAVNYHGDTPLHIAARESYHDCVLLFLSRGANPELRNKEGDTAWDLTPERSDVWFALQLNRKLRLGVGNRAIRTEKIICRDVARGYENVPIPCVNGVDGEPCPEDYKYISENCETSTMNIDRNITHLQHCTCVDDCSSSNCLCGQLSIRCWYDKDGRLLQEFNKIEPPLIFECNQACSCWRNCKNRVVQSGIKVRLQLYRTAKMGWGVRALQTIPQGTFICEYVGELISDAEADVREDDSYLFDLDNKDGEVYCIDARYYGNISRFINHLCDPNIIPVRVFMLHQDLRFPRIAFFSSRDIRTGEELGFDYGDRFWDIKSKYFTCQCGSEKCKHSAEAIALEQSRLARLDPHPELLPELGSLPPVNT

SMILES	Potency	activity, negative = inhibition
Cc1ccc(NC(=O)c2c(C(=O)Nc3ccccc3)sc3nc(C)cc(=O)n23)c(C)c1	inconclusive: 14.1 µM [inhibitor, partial curve]	–
Cc1nn(-c2ccccc2)c(OC(=O)c2ccc(F)cc2)c1S(=O)(=O)c1ccccc1	inconclusive: 31.6 µM [inhibitor, single point]	–
O=C(c1ccccc1)N1CCN(CC(O)Cn2ccc3ccccc32)CC1 (configuration not stated)	active: 11.2 µM	–
CCn1c(CN2CCCCC2)nc2cc(NC(=O)c3ccccc3[N+](=O)[O-])ccc21	–	inactive: -4.26%
COc1ccccc1N(C(=O)CNC(=O)c1ccco1)C(C(=O)NC1CCCCC1)c1ccncc1 (configuration not stated)	–	inactive: -21% [at 102 µM]
COC(=O)c1ccc(C2c3c(oc4ccc(Cl)cc4c3=O)C(=O)N2CCN2CCOCC2)cc1 (configuration not stated)	active: 20 µM	–
CCc1ccc(C(=O)COC(=O)c2cc([N+](=O)[O-])ccc2NCCO)cc1	inconclusive: 14.1 µM [inhibitor, single point]	–
N#Cc1c(C(F)(F)F)cc(=O)[nH]c1SCC(=O)O	inconclusive: 44.7 µM [inhibitor, partial curve, poor fit]	–
c1ccc(Cn2ncc3c(N4CCCCC4)ncnc32)cc1	inconclusive: 50.1 µM [inhibitor, partial curve]	–
CN1C(=O)c2c(sc3c2CC(C)(C)SC3)N2CCN=C12	inconclusive: 50.1 µM [inhibitor, partial curve]	–
O=C(CSc1ccc2c(c1)OCCO2)Nc1ncccc1O	–	inactive: 5.42% [at 0.501 µM]
CC(C)NC(=S)N/N=C1\CCCCC1C1CCCCC1 (configuration not stated)	active: 22.4 µM	–
COc1ccc(OC)c(/C=C/C(=O)N(C)CC(=O)Nc2cc(C)ccc2C)c1	inconclusive: 89.1 µM [inhibitor, single point]	–
COc1cccc(N2CCN(C(=O)c3cc4c(=O)n(Cc5cccs5)ccc4nc3C)CC2)c1	–	inactive: 1.81%
CCOC(=O)c1[nH]c2cc(OC)c(OC)cc2c1NC(=O)CN1CCN(c2ccc(OC)cc2)C(C)C1 (configuration not stated)	active: 22.4 µM	–
COc1ccccc1S(=O)(=O)CC(O)COc1ccc(C#N)cc1 (configuration not stated)	–	inactive: 11.9%
S=C(Nc1ccccc1)Nc1nccs1	active: 3.16 µM and active: 26.7 µM	inactive: 33.2% [at 2.33 µM]
O=C(Nc1cccc2cccnc12)c1cccc2ccccc12	inactive	–
CCOC(=O)c1ccc(NC(=O)c2csc3c2CCCC3)cc1	–	inactive: 0.759%
C=C(C)CNC(=S)N/N=C1\CCCCc2ccccc21	inconclusive: 44.7 µM [inhibitor, partial curve]	–
CC(C)CC(=O)NC(=S)Nc1ccc(S(=O)(=O)N2CCN(C)CC2)cc1	inconclusive: 39.8 µM [inhibitor, single point]	–
Cc1cc(C)cc(NC(=O)CN(C)CC(=O)N(CC(C)C)c2c(N)n(CC(C)C)c(=O)[nH]c2=O)c1	–	inactive: 15.5% [at 12.7 µM]
Cc1ccc(OCc2nnc(SCC(=O)c3cccc([N+](=O)[O-])c3)n2C)cc1	–	inconclusive: -76.7% [inhibitor]
O=C(NC1C2CCCC1CN(C1CC1)C2)c1ccc(Cl)cc1 (configuration not stated)	–	inactive: 7.78%

SMILES	Potency	activity, negative = inhibition
CCN(CC)C1CCN(Cc2cn[nH]c2-c2ccc(OC)c(F)c2)C1 (configuration not stated)	inconclusive: 56.2 µM [inhibitor, partial curve]	–
CCOc1cc(/C=N/n2cnnc2)cc(Br)c1O	inconclusive: 89.1 µM [inhibitor, single point]	–
CCSC1=C(C#N)C(c2ccc(C)o2)CC(=O)N1 (configuration not stated)	–	inactive: 11.9% [at 12.7 µM]
COCCNC(=O)COc1ccc(Br)cc1Cl	–	inactive: -2.74% [at 12.7 µM]
CCN1CCN(Cc2ccc(NC(=O)c3ccc(C)c(NC(=O)c4ccno4)c3)cc2C(F)(F)F)CC1	–	inactive: -46%
CCCN1CCN(C(=O)c2cccc3c2C(=O)N(CCOC)C3)CC1	inconclusive: 79.4 µM [inhibitor, single point]	–
COC(=O)[C@@H]1CC[C@H](C)[C@@H](c2ccc(C)cc2)N1C(=O)c1ccc(/C=N/OCC[C@@H]2C=C[C@H](OC(C)=O)[C@@H](COC(C)=O)O2)cc1	inconclusive: 56.2 µM [inhibitor, partial curve, poor fit]	–
COc1ccccc1NC(=O)CN1C(=O)CC(c2ccc(C)c(C)c2)=Nc2ccccc21	–	inactive: -30.2%
CCc1nnc(NS(=O)(=O)c2ccc(NC(=S)NC(=O)c3ccc(OC)c(OC)c3)cc2)s1	inconclusive: 3.55 µM [inhibitor, full curve, poor fit]	–
c1ccc(-n2c(SCc3ccncc3)nnc2-c2ccco2)cc1	inconclusive: 1.58 µM [inhibitor, single point]	–
N#CC1=C(N)OC2=C(C(=O)CC(c3ccccc3)C2)C1c1ccc2c(c1)OCO2 (configuration not stated)	inconclusive: 89.1 µM [inhibitor, single point]	–
CCN(CC)S(=O)(=O)c1ccc2oc(Nc3ccc(OC)cc3OC)nc2c1	–	inactive: -7.47% [at 102 µM]
O=C(O)c1ccccc1N=Nc1c(O)[nH]c2ccc([N+](=O)[O-])cc12	active: 25.1 µM	–
Cc1ccc(S(=O)(=O)CCC(=O)N2CCN(c3ccc(Cl)cc3)CC2)cc1	inconclusive: 39.8 µM [inhibitor, single point]	–
Cc1ccc(C)c(OCCC(=O)OCC(=O)N2c3ccccc3NC(=O)C2(C)C)c1	inconclusive: 5.01 µM [inhibitor, single point]	–
CCc1nccn1S(=O)(=O)c1ccc(C)c(C)c1	active: 44.7 µM	–
O=C1CCCC(=O)C1=Cc1c[nH]c2ccccc12	inconclusive: 12.6 µM [inhibitor, partial curve, poor fit]	–
CCN(CC)C(=O)COc1ccc2oc(-c3ccco3)cc(=O)c2c1	inconclusive: 56.2 µM [inhibitor, partial curve, poor fit]	–
NC(=O)C1CCN(c2oc(/C=C/c3ccccc3)nc2S(=O)(=O)c2ccccc2)CC1	inconclusive: 3.55 µM [inhibitor, partial curve, poor fit]	–
Cc1ccc(/C=C2\NC(=S)NC2=O)cc1[N+](=O)[O-]	–	inactive: -34.4% [at 102 µM]
COc1ccc(/C=N/Nc2nnc(Cc3ccccc3)c(=O)[nH]2)cc1OC	–	inactive: 19.1% [at 102 µM]
COc1cccc(/C(O)=C2/C(=O)C(=O)N(c3ccccn3)C2c2ccc(OC)c(OC)c2)c1 (configuration not stated)	inconclusive: 56.2 µM [inhibitor, single point]	–
CCOc1ccc(NC(=O)Nc2ccccc2SC)cc1	–	inactive: -27.1% [at 102 µM]
CCCc1cc(=O)oc2cc(C)cc(OC(C)C(=O)NCCN3CCOCC3)c12 (configuration not stated)	–	inactive: 17.9% [at 102 µM]

SMILES	Potency	activity, negative = inhibition
CCOC(=O)[C@H]1[C@H]2COc3cc(OC)ccc3[C@@H]2N2C(=O)CN(CC3CCCO3)C(=O)[C@@]12C (some centres not stated)	–	inactive: 2.35% [at 2.33 µM]
COc1ccccc1C(CNc1ncccc1[N+](=O)[O-])N(C)C (configuration not stated)	inconclusive: 79.4 µM [inhibitor, partial curve]	–
O=C(N/N=C/c1ccc(N2CCOCC2)cc1)c1ccccn1	inconclusive: 3.55 µM [inhibitor, single point]	–
CC(C)Oc1ccc(CNC(=O)Nc2ccc3c(c2)N(C)C(=O)c2ccccc2S3)cc1	–	inactive: -12.6%
CC(C(=O)Nc1cccc(S(=O)(=O)N2CCOCC2)c1)N1CCN(c2ccc(F)cc2)CC1 (configuration not stated)	–	inactive: 18.8%
COc1cc(/C=C2\CC/C(=C\c3ccc(OCCO)c(OC)c3)C2=O)ccc1OCCO	active: 44.7 µM	–
CCN(CC)CCN(C(=O)c1ccc(S(=O)(=O)N2CCCCC2)cc1)c1nc2cc3c(cc2s1)OCO3	active: 50.1 µM	–
Cc1cccc(NC(=O)c2c(NC(=O)c3ccccc3)sc3c2CCCC3)c1	active: 1.26 µM	–
CCS(=O)(=O)Nc1cccc(C2=NN(S(=O)(=O)c3ccc(C)cc3)C(c3ccco3)C2)c1 (configuration not stated)	inconclusive: 50.1 µM [inhibitor, partial curve]	–
Cc1cccc(C)c1NC(=S)NC(C)(C)CO	inconclusive: 25.1 µM [inhibitor, single point]	–
S=C(Nc1cccnc1)Nc1cccc2cnccc12	active: 35.5 µM	–
Cc1noc(/C=C/N(C)C)c1S(=O)(=O)N1CCN(c2ccc(F)cc2)CC1	inconclusive: 50.1 µM [inhibitor, partial curve]	–
CC(=O)c1ccc(NC(=O)CCSCCC(=O)Nc2ccc(C(C)=O)cc2)cc1	inconclusive: 31.6 µM [inhibitor, single point]	–
N=c1oc2ccccc2cc1-c1nc(-c2ccc(Cl)cc2)cs1	inconclusive: 89.1 µM [inhibitor, single point]	–
COC(=O)c1ccccc1NC(=O)CSc1nc(N)cc(=O)[nH]1	active: 50.1 µM	–
CCc1ccc(Nc2nnc(SCC(=O)Nc3sccc3C(N)=O)s2)cc1	active: 11.2 µM	–
CCOc1ccc(-c2cc3nc(C4CCN(C(=O)OC(C)(C)C)CC4)c(C(=O)Nc4ccc(C)cc4Cl)cn3n2)cc1	–	inactive: 17.7%
Cc1cc(C)n2nc(SCC(=O)c3ccc[nH]3)nc2n1	inconclusive: 79.4 µM [inhibitor, single point]	–
O=C(NCCCn1ccnc1)c1cn(-c2ccccc2)nc1-c1ccccc1	–	inactive: -2.23%
COC(=O)c1ccc([C@H]2C=C(C(=O)O)O[C@@H](OCc3ccc(CO)cc3)C2)cc1	inconclusive: 10 µM [inhibitor, single point]	–
Cc1cc(C)c2c(n1)nn1c(C)c(CCC(=O)NCc3ccccc3Cl)c(C)nc21	–	inactive: 14.4%
CCOc1ccccc1OCC(=O)Nc1ccc(N2CCCCC2)cc1	–	inconclusive: -81.5% [inhibitor]
O=C(C1CC(=O)N(C2CCCCC2)C1)N1CCN(c2ccccc2)CC1 (configuration not stated)	inconclusive: 15.8 µM [inhibitor, partial curve, poor fit]	–

Reference: PubChem BioAssay AID504332 (National Center for Advancing Translational Sciences (NCATS), 2011)
